The text below walks through data of the supplement of paper PMC7266297.

One test has as its system KB-3-1. Kind of test: growth inhibition relative to DMSO control (SRB); cervical cancer cells: KB-3-1 is the parent and KB-V1 overexpresses MDR1; SRB is the sulforhodamine B stain; higher = more growth inhibition. The note with it: 1 µM; 72 h.
A further test relates to KB-V1. Described as above. Particulars: 1 µM; 72 h.

Counter-ions that a name gives are not always drawn. The list shows a part of the results. Many values rest on one well or one pass, so single values are uncertain.
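Further: Read-out is SRB optical density at 490 nm, with the control being wells given 0.5% DMSO vehicle, and compound added one day after cells were plated.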

Consider `CNC(=O)c1nn(C)c2c1C(C)(C)Cc1cnc(Nc3ccc(N4CCN(C)CC4)cc3)nc1-2`, for which the growth inhibition in the test on KB-3-1 is less than 0%; in the test with KB-V1, 64.6%.

For `CCOC(=O)c1ccc(NC2CCCCC2)c(N)c1` [Ferrostatin-1 (Fer-1)], the results for the growth inhibition with KB-3-1 and in the test with KB-V1 were 0.442% and less than 0%, respectively.

For the molecule `Nc1ncnc2c1c(-c1cnc3[nH]ccc3c1)nn2C1CCCC1`, the growth inhibition was determined as 83.5% with KB-3-1 and 67.6% in the test with KB-V1.

Regarding `CNC(=O)Nc1ccc(-c2nc(N3CC4CCC(C3)O4)c3cnn(C4CCC5(CC4)OCCO5)c3n2)cc1`, the growth inhibition in the test with KB-3-1 was found to be 70.4%; in the test on KB-V1 it was 67.8%.

Consider `Cc1ccc(NC(=O)C2(c3ccc4c(c3)OC(F)(F)O4)CC2)nc1-c1cccc(C(=O)O)c1` [VX-809 (Lumacaftor)], for which the figures for the growth inhibition with KB-3-1 and in the test with KB-V1 were 26.5% and 11%, respectively.

In the case of `COc1ccc(-c2oc3c(CC=C(C)C)c(O[C@@H]4O[C@H](CO)[C@@H](O)[C@H](O)[C@H]4O)cc(O)c3c(=O)c2O[C@@H]2O[C@@H](C)[C@H](O)[C@@H](O)[C@H]2O)cc1` [Icariin], the growth inhibition with KB-3-1 and in the test with KB-V1 was less than 0% each time.

`CN(C)c1ccc(-c2nc3ncc(Cl)c(N4CCN(CC(=O)Nc5nccs5)CC4)c3[nH]2)cc1`: the growth inhibition with KB-3-1 was 88.3%; in the test on KB-V1, 87.4%.

As for `Cc1[nH]c(/C=C2\C(=O)Nc3ccc(S(=O)(=O)N(C)c4cccc(Cl)c4)cc32)c(C)c1C(=O)N1CCN(C)CC1`, the growth inhibition is 26.3% with KB-3-1 and 28% in the test on KB-V1.

Take `CCOc1cc(CC(=O)N[C@@H](CC(C)C)c2ccccc2N2CCCCC2)ccc1C(=O)O` [Repaglinide]: the growth inhibition in the test with KB-3-1 was determined as 9.03%; in the test with KB-V1, 42.2%.

On to `O=C(Nc1ccccc1-c1cn2c(CN3CCNCC3)csc2n1)c1cnc2ccccc2n1`, for which the growth inhibition with KB-3-1 was 47.5%; in the test with KB-V1 it was 63.8%.

Regarding `O=C(c1cc(Cc2n[nH]c(=O)c3ccccc23)ccc1F)N1CCN(C(=O)C2CC2)CC1`, the figures for the growth inhibition with KB-3-1 and in the test with KB-V1 were 26.5% and 26.4%, respectively.

Consider `CN1[C@@H]2CC[C@H]1C[C@@H](OC(c1ccccc1)c1ccccc1)C2` [Benztropine mesylate], for which the results for the growth inhibition in the test on KB-3-1 and with KB-V1 were 0.562% and 27.9%, respectively.

On to `Cc1cc(Nc2cc(N3CCN(C)CC3)nc(Sc3ccc(NC(=O)C4CC4)cc3)n2)n[nH]1` [VX-680 (Tozasertib, MK-0457)], for which the growth inhibition with KB-3-1 amounted to 67.4%; in the test on KB-V1, 71%.

With `COc1c(C)c2c(c(O)c1C/C=C(\C)CCC(=O)OCCN1CCOCC1)C(=O)OC2` [Mycophenolate Mofetil], the figures for the growth inhibition in the test on KB-3-1 and in the test on KB-V1 were 48.5% and 46.6%, respectively.

For `CNC(=O)c1cc(Oc2ccc(NC(=O)Nc3ccc(Cl)c(C(F)(F)F)c3)cc2)ccn1` [Sorafenib], the figures for the growth inhibition in the test with KB-3-1 and in the test on KB-V1 were 58.6% and 17.9%, respectively.

For `Cc1c(Cc2ccc3ccccc3n2)c2cc(F)ccc2n1CC(=O)O`, the growth inhibition with KB-3-1 stood at 2.38%; with KB-V1 it was 11.9%.

For the molecule `COc1cc2/c(=N/c3ccc(Br)cc3F)nc[nH]c2cc1OCC1CCN(C)CC1` [Vandetanib (ZD6474)], the results for the growth inhibition in the test on KB-3-1 and with KB-V1 were 67.5% and 41%, respectively.

Turning to `O=C(NOC[C@H](O)CO)c1ccc(F)c(F)c1Nc1ccc(I)cc1F`, the growth inhibition in the test with KB-3-1 was 86%; in the test on KB-V1, 66.2%.

Regarding `C=CCc1ccc(O)c(-c2ccc(O)c(CC=C)c2)c1` [Honokiol], the growth inhibition with KB-3-1 was less than 0%; with KB-V1, 6.54%.

Turning to `CN1C(=O)C(Cc2c[nH]c3ccccc23)NC1=S` (stereo not given) [Necrostatin-1], the growth inhibition in the test on KB-3-1 was 42%; in the test on KB-V1 it was less than 0%.

For `C=CC(=O)Nc1cc2c(Nc3ccc(F)c(Cl)c3)ncnc2cc1OCCCN1CCOCC1` [Canertinib (CI-1033)], the growth inhibition with KB-3-1 was found to be 45%; in the test on KB-V1 it was 44.9%.

In the case of `CC[C@H](NC(=O)[C@H](C)NC)C(=O)N1C[C@@H](O)C[C@H]1Cc1c(-c2[nH]c3cc(F)ccc3c2C[C@@H]2C[C@H](O)CN2C(=O)[C@H](CC)NC(=O)[C@H](C)NC)[nH]c2cc(F)ccc12` [Birinapant], the growth inhibition in the test with KB-3-1 worked out at 22.2%; with KB-V1 it was 10.5%.

In the case of `CCc1cc2c(cc1N1CCC(N3CCOCC3)CC1)C(C)(C)c1[nH]c3cc(C#N)ccc3c1C2=O`, the growth inhibition in the test on KB-3-1 was less than 0%; in the test on KB-V1 it was 3.12%.

Consider `CNC[C@H](O)c1cccc(O)c1` [Phenylephrine HCl], for which the growth inhibition was 26.9% in the test on KB-3-1 and less than 0% with KB-V1.

On to `O=C(NC[C@H](O)CO)c1ccncc1Nc1ccc(I)cc1F`, for which the growth inhibition in the test on KB-3-1 was 45.6%; in the test with KB-V1 it was 34.2%.

In the case of `CC/C(=C(\c1ccccc1)c1ccc(OCCN(C)C)cc1)c1ccccc1` [Tamoxifen Citrate], the growth inhibition in the test with KB-3-1 is 52.2%; with KB-V1, 23.3%.

As to `Cc1ccc(Nc2nccc(N(C)c3ccc4c(C)n(C)nc4c3)n2)cc1S(N)(=O)=O`, the growth inhibition turned out to be 68.8% with KB-3-1 and 37.6% in the test with KB-V1.

`O=c1cc(-c2ccc(O)c(O)c2)oc2cc(O)cc(O)c12` [Luteolin]: the growth inhibition in the test on KB-3-1 was less than 0%; with KB-V1, 6.54%.

In the case of `CCOC(=O)C1=C(C)NC(C)=C(C(=O)OC)C1c1cccc(Cl)c1Cl` (stereo not given) [Felodipine], the growth inhibition is 48.5% with KB-3-1 and 22.1% in the test with KB-V1.

As to `CNCCCC12CCC(c3ccccc31)c1ccccc12` [Maprotiline HCl], the growth inhibition was 32.9% in the test with KB-3-1 and 12.9% in the test with KB-V1.

For `CCOC(=O)c1ccc(OC(=O)CCCCCNC(=N)N)cc1` [Gabexate Mesylate], the growth inhibition in the test with KB-3-1 was found to be 84.9%; in the test with KB-V1 it was 96.3%.

As for `CC[C@@]1(O)C(=O)OCc2c1cc1n(c2=O)Cc2cc3c(CN(C)C)c(O)ccc3nc2-1` [Topotecan HCl], the growth inhibition in the test with KB-3-1 worked out at 67.7%; in the test on KB-V1, 54.1%.

Consider `C[C@H]1[C@H](C)CC[C@]2(C(=O)O)CC[C@]3(C)C(=CC[C@@H]4[C@@]5(C)C[C@@H](O)[C@H](O)[C@@](C)(CO)[C@@H]5CC[C@]43C)[C@H]12` [Asiatic Acid], for which the growth inhibition was less than 0% with KB-3-1 and 36.4% with KB-V1.

For `COCCCN1CCC(NC(=O)c2cc(Cl)c(N)c3c2OCC3)CC1` [Prucalopride], the growth inhibition with KB-3-1 came out at 2.38%; in the test on KB-V1, 11.9%.

Turning to `Cc1csc(-c2nnc(Nc3ccc(Oc4ncccc4-c4ccnc(N)n4)cc3)c3ccccc23)c1`, the growth inhibition was less than 0% in the test with KB-3-1 and 20.3% with KB-V1.
